Data published in patent publication US20240358826A1 (ORIONIS BIOSCIENCES, published 2024).

T1: IL-1R (IL-1 Receptor) (UniProt P14778 18-569, limits assumed)
T1 sequence (looked up): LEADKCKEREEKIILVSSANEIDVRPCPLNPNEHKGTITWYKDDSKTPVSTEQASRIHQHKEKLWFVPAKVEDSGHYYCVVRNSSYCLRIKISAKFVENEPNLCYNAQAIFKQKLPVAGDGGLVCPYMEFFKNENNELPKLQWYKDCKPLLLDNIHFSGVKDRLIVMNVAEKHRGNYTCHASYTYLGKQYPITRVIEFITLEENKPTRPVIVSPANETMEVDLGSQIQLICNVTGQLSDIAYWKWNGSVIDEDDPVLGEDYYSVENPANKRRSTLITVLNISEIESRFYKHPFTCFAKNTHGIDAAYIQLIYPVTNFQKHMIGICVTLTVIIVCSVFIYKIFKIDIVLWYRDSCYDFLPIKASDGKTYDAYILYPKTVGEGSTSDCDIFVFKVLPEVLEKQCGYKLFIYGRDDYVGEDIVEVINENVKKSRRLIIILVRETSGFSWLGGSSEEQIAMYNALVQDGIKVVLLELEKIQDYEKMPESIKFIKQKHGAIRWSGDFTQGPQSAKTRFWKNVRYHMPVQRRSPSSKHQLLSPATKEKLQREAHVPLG

B1: CD8 VHH_5GGS_Fc_hole + Fc-knob_20GGS_IL1α delta 1-6_I18G (Fc fusion)
chain 1: DVQLQESGGGLVQPGGSLRLSCAASGSIFSINVMGWYRQTPGKERELVAKITNFGITSYADSAQGRFTISRGNAKNTVYLQMNSLKPEDTAVYYCNLDTTGWGPPPYQYWGQGTQVTVSSGGSGGSGGSGGSGGSDKTHTCPPCPAPEAAGGPSVFLFPPKPKDTLMISRTPEVTCVVVDVSHEDPEVKFNWYVDGVEVHNAKTKPREEQYNSTYRVVSVLTVLHQDWLNGKEYKCQVSNKALPAPIEKTISKAKGQPREPQVCTLPPSRDELTKNQVSLSCAVKGFYPSDIAVEWESNGQPENNYKTTPPVLDSDGSFFLVSKLTVDKSRWQQGNVFSCSVMHEALHNHYTQKSLSLSPGK
chain 2: [letters of human IgG1 Fc with changes not shown]GGSGGSGGSGGSGGSGGSGGSGGSGGSGGSGGSGGSGGSGGSGGSGGSGGSGGSGGSGGSLSNVKYNFMRIGKYEFILNDALNQSIIRANDQYLTAAALHNLDEAVKFDMGAYKSSKDDAKITVILRISKTQLYVTAQDEDQPVLLKEMPEIPKTITGSETNLLFFWETHGTKNYFTSVAHPNLFIATKQDYWVCLAGGPPSITDFQILENQA
B2: CD8 VHH_5GGS_Fc_hole + Fc-knob_20GGS_IL1α delta 1-6_A44G (Fc fusion)
chain 1: B1 chain 1
chain 2: [letters of human IgG1 Fc with changes not shown]GGSGGSGGSGGSGGSGGSGGSGGSGGSGGSGGSGGSGGSGGSGGSGGSGGSGGSGGSGGSLSNVKYNFMRIIKYEFILNDALNQSIIRANDQYLTAAGLHNLDEAVKFDMGAYKSSKDDAKITVILRISKTQLYVTAQDEDQPVLLKEMPEIPKTITGSETNLLFFWETHGTKNYFTSVAHPNLFIATKQDYWVCLAGGPPSITDFQILENQA
B3: CD8 VHH_5GGS_Fc_hole + Fc-knob_20GGS_IL1α delta 1-6_D64A (Fc fusion)
chain 1: B1 chain 1
chain 2: [letters of human IgG1 Fc with changes not shown]GGSGGSGGSGGSGGSGGSGGSGGSGGSGGSGGSGGSGGSGGSGGSGGSGGSGGSGGSGGSLSNVKYNFMRIIKYEFILNDALNQSIIRANDQYLTAAALHNLDEAVKFDMGAYKSSKADAKITVILRISKTQLYVTAQDEDQPVLLKEMPEIPKTITGSETNLLFFWETHGTKNYFTSVAHPNLFIATKQDYWVCLAGGPPSITDFQILENQA
B4: CD8 VHH_5GGS_Fc_hole + Fc-knob_20GGS_IL1α delta 1-6_K60A (Fc fusion)
chain 1: B1 chain 1
chain 2: [letters of human IgG1 Fc with changes not shown]GGSGGSGGSGGSGGSGGSGGSGGSGGSGGSGGSGGSGGSGGSGGSGGSGGSGGSGGSGGSLSNVKYNFMRIIKYEFILNDALNQSIIRANDQYLTAAALHNLDEAVKFDMGAYASSKDDAKITVILRISKTQLYVTAQDEDQPVLLKEMPEIPKTITGSETNLLFFWETHGTKNYFTSVAHPNLFIATKQDYWVCLAGGPPSITDFQILENQA
B5: CD8 VHH_5GGS_Fc_hole + Fc-knob_20GGS_IL1α delta 1-6_H46G (Fc fusion)
chain 1: B1 chain 1
chain 2: [letters of human IgG1 Fc with changes not shown]GGSGGSGGSGGSGGSGGSGGSGGSGGSGGSGGSGGSGGSGGSGGSGGSGGSGGSGGSGGSLSNVKYNFMRIIKYEFILNDALNQSIIRANDQYLTAAALGNLDEAVKFDMGAYKSSKDDAKITVILRISKTQLYVTAQDEDQPVLLKEMPEIPKTITGSETNLLFFWETHGTKNYFTSVAHPNLFIATKQDYWVCLAGGPPSITDFQILENQA
B6: CD8 VHH_5GGS_Fc_hole + Fc-knob_20GGS_IL1α delta 1-6_A58H (Fc fusion)
chain 1: B1 chain 1
chain 2: [letters of human IgG1 Fc with changes not shown]GGSGGSGGSGGSGGSGGSGGSGGSGGSGGSGGSGGSGGSGGSGGSGGSGGSGGSGGSGGSLSNVKYNFMRIIKYEFILNDALNQSIIRANDQYLTAAALHNLDEAVKFDMGHYKSSKDDAKITVILRISKTQLYVTAQDEDQPVLLKEMPEIPKTITGSETNLLFFWETHGTKNYFTSVAHPNLFIATKQDYWVCLAGGPPSITDFQILENQA
B7: CD8 VHH_5GGS_Fc_hole + Fc-knob_20GGS_IL1α delta 1-6_I68G (Fc fusion)
chain 1: B1 chain 1
chain 2: [letters of human IgG1 Fc with changes not shown]GGSGGSGGSGGSGGSGGSGGSGGSGGSGGSGGSGGSGGSGGSGGSGGSGGSGGSGGSGGSLSNVKYNFMRIIKYEFILNDALNQSIIRANDQYLTAAALHNLDEAVKFDMGAYKSSKDDAKGTVILRISKTQLYVTAQDEDQPVLLKEMPEIPKTITGSETNLLFFWETHGTKNYFTSVAHPNLFIATKQDYWVCLAGGPPSITDFQILENQA
B8: CD8 VHH_5GGS_Fc_hole + Fc-knob_20GGS_IL1α delta 1-6_I33G (Fc fusion)
chain 1: B1 chain 1
chain 2: [letters of human IgG1 Fc with changes not shown]GGSGGSGGSGGSGGSGGSGGSGGSGGSGGSGGSGGSGGSGGSGGSGGSGGSGGSGGSGGSLSNVKYNFMRIIKYEFILNDALNQSIGRANDQYLTAAALHNLDEAVKFDMGAYKSSKDDAKITVILRISKTQLYVTAQDEDQPVLLKEMPEIPKTITGSETNLLFFWETHGTKNYFTSVAHPNLFIATKQDYWVCLAGGPPSITDFQILENQA
B9: CD8 VHH_5GGS_Fc_hole + Fc-knob_20GGS_IL1α delta 1-6_N25G (Fc fusion)
chain 1: B1 chain 1
chain 2: [letters of human IgG1 Fc with changes not shown]GGSGGSGGSGGSGGSGGSGGSGGSGGSGGSGGSGGSGGSGGSGGSGGSGGSGGSGGSGGSLSNVKYNFMRIIKYEFILGDALNQSIIRANDQYLTAAALHNLDEAVKFDMGAYKSSKDDAKITVILRISKTQLYVTAQDEDQPVLLKEMPEIPKTITGSETNLLFFWETHGTKNYFTSVAHPNLFIATKQDYWVCLAGGPPSITDFQILENQA
B10: CD8 VHH_5GGS_Fc_hole + Fc-knob_20GGS_IL1α delta 1-6_K67A (Fc fusion)
chain 1: B1 chain 1
chain 2: [letters of human IgG1 Fc with changes not shown]GGSGGSGGSGGSGGSGGSGGSGGSGGSGGSGGSGGSGGSGGSGGSGGSGGSGGSGGSGGSLSNVKYNFMRIIKYEFILNDALNQSIIRANDQYLTAAALHNLDEAVKFDMGAYKSSKDDAAITVILRISKTQLYVTAQDEDQPVLLKEMPEIPKTITGSETNLLFFWETHGTKNYFTSVAHPNLFIATKQDYWVCLAGGPPSITDFQILENQA
B11: CD8 VHH_5GGS_Fc_hole + Fc-knob_20GGS_IL1α delta 1-6_I68A (Fc fusion)
chain 1: B1 chain 1
chain 2: [letters of human IgG1 Fc with changes not shown]GGSGGSGGSGGSGGSGGSGGSGGSGGSGGSGGSGGSGGSGGSGGSGGSGGSGGSGGSGGSLSNVKYNFMRIIKYEFILNDALNQSIIRANDQYLTAAALHNLDEAVKFDMGAYKSSKDDAKATVILRISKTQLYVTAQDEDQPVLLKEMPEIPKTITGSETNLLFFWETHGTKNYFTSVAHPNLFIATKQDYWVCLAGGPPSITDFQILENQA
B12: CD8 VHH_5GGS_Fc_hole + Fc-knob_20GGS_IL1α delta 1-6_A58N (Fc fusion)
chain 1: B1 chain 1
chain 2: [letters of human IgG1 Fc with changes not shown]GGSGGSGGSGGSGGSGGSGGSGGSGGSGGSGGSGGSGGSGGSGGSGGSGGSGGSGGSGGSLSNVKYNFMRIIKYEFILNDALNQSIIRANDQYLTAAALHNLDEAVKFDMGNYKSSKDDAKITVILRISKTQLYVTAQDEDQPVLLKEMPEIPKTITGSETNLLFFWETHGTKNYFTSVAHPNLFIATKQDYWVCLAGGPPSITDFQILENQA
B13: CD8 VHH_5GGS_Fc_hole + Fc-knob_20GGS_IL1α delta 1-6_L28A (Fc fusion)
chain 1: B1 chain 1
chain 2: [letters of human IgG1 Fc with changes not shown]GGSGGSGGSGGSGGSGGSGGSGGSGGSGGSGGSGGSGGSGGSGGSGGSGGSGGSGGSGGSLSNVKYNFMRIIKYEFILNDAANQSIIRANDQYLTAAALHNLDEAVKFDMGAYKSSKDDAKITVILRISKTQLYVTAQDEDQPVLLKEMPEIPKTITGSETNLLFFWETHGTKNYFTSVAHPNLFIATKQDYWVCLAGGPPSITDFQILENQA

target: T1, IL-1R (IL-1 Receptor); assay: cell-based or functional assay

NF-KB signal, -CD8 cells, 1 ng/ml | NF-KB signal, -CD8 cells, 10 ng/ml | NF-KB signal, -CD8 cells, 100 ng/ml | NF-KB signal, -CD8 cells, 1000 ng/ml | Binder
0.01 rel. to 100 ng/ml IL1α | 0.02 rel. to 100 ng/ml IL1α | 0.01 rel. to 100 ng/ml IL1α | 0.05 rel. to 100 ng/ml IL1α | B1
0.01 rel. to 100 ng/ml IL1α | 0.02 rel. to 100 ng/ml IL1α | 0.11 rel. to 100 ng/ml IL1α | – | B2
0.02 rel. to 100 ng/ml IL1α | 0.02 rel. to 100 ng/ml IL1α | 0.09 rel. to 100 ng/ml IL1α | 0.71 rel. to 100 ng/ml IL1α | B3
0.03 rel. to 100 ng/ml IL1α | 0.02 rel. to 100 ng/ml IL1α | 0.05 rel. to 100 ng/ml IL1α | 0.45 rel. to 100 ng/ml IL1α | B4
0.01 rel. to 100 ng/ml IL1α | 0.01 rel. to 100 ng/ml IL1α | 0.02 rel. to 100 ng/ml IL1α | 0.31 rel. to 100 ng/ml IL1α | B5
0.01 rel. to 100 ng/ml IL1α | 0.02 rel. to 100 ng/ml IL1α | 0.03 rel. to 100 ng/ml IL1α | 0.28 rel. to 100 ng/ml IL1α | B6
0.01 rel. to 100 ng/ml IL1α | 0.01 rel. to 100 ng/ml IL1α | 0.01 rel. to 100 ng/ml IL1α | 0.18 rel. to 100 ng/ml IL1α | B7
0.02 rel. to 100 ng/ml IL1α | 0.01 rel. to 100 ng/ml IL1α | 0.04 rel. to 100 ng/ml IL1α | 0.58 rel. to 100 ng/ml IL1α | B8
– | 0.02 rel. to 100 ng/ml IL1α | 0.15 rel. to 100 ng/ml IL1α | 0.83 rel. to 100 ng/ml IL1α | B9
0.01 rel. to 100 ng/ml IL1α | 0.01 rel. to 100 ng/ml IL1α | 0.12 rel. to 100 ng/ml IL1α | 0.97 rel. to 100 ng/ml IL1α | B10
0.01 rel. to 100 ng/ml IL1α | 0.03 rel. to 100 ng/ml IL1α | 0.23 rel. to 100 ng/ml IL1α | 0.91 rel. to 100 ng/ml IL1α | B11
0.01 rel. to 100 ng/ml IL1α | 0.01 rel. to 100 ng/ml IL1α | 0.02 rel. to 100 ng/ml IL1α | 0.17 rel. to 100 ng/ml IL1α | B12
0.01 rel. to 100 ng/ml IL1α | 0.07 rel. to 100 ng/ml IL1α | 0.58 rel. to 100 ng/ml IL1α | 1.11 rel. to 100 ng/ml IL1α | B13
